Experimental data as given in article PMC4336329 (PLoS ONE, 2015).
About 14,000 (4.5%) of roughly 310,000 compounds showed an effect of 50% or more. Effects have a minus sign here. Some of the results follow.

Target: human ether-à-go-go-related gene (hERG) potassium channel (human, UniProt Q12809)
Test: primary screen, population patch clamp on CHO cells stably expressing hERG
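Also: peak tail current of the secondary pulse compared with the same well before compound.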

Chain of human ether-à-go-go-related gene (hERG) potassium channel (Q12809 whole entry, looked up): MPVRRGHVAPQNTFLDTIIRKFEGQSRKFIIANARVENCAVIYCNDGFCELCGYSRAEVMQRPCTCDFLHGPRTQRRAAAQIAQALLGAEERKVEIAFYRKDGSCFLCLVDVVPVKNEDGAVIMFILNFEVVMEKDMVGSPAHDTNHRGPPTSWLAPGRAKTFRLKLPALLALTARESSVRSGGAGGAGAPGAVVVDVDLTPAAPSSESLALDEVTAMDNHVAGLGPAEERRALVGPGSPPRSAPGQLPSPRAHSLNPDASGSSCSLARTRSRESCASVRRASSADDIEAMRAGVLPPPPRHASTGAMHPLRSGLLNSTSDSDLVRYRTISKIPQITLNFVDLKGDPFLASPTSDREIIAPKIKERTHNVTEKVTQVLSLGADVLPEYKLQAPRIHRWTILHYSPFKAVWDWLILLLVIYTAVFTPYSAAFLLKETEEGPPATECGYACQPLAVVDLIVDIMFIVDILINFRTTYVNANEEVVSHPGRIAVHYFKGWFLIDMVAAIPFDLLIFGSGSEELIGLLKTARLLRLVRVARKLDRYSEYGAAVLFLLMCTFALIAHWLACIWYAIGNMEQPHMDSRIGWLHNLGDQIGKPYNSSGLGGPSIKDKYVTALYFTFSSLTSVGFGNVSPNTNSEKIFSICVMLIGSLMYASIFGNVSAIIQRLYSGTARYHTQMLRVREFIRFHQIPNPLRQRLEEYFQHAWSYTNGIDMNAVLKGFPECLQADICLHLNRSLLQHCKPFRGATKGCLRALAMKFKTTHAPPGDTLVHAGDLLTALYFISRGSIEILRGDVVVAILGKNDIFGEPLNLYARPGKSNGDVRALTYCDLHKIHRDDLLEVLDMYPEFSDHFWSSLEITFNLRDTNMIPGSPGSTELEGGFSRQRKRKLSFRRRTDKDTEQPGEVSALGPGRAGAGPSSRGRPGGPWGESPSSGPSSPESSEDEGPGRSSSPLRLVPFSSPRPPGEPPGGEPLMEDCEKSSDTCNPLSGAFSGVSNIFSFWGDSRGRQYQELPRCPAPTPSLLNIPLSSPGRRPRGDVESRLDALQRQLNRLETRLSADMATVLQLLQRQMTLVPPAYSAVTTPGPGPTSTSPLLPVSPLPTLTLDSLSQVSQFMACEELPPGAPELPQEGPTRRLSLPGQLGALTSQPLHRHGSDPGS

Structure (SMILES) | hERG current change (%, negative = inhibition) at 10uM [%]
CCOC(=O)COc1ccccc1C(=O)c1cnn(-c2ccccc2)c1 | -11.9
O=C(Nc1ccccc1)N1CCCC2CCCCC21 (stereo not drawn) | -32
COc1cc(/C=N/Nc2ccc(C)cc2)cc(Br)c1O.Cl | 11.6
O=C(OCC(=O)N1CCCc2ccccc21)c1ccccc1[N+](=O)[O-] | -12.3
CC(=O)Nc1cc[n+](CC(=O)c2cccc([N+](=O)[O-])c2)cc1.[Cl-] | -5.08
CC(=O)/C(=N\Nc1ccccc1Cl)Sc1cccc2cccnc12 | -2.72
Cc1cccc(N2CCN(CC(=O)Nc3ccc(S(=O)(=O)N4CCOCC4)cc3)CC2)c1C | -44.9
O=C(COC(=O)Cc1ccsc1)Nc1ccc(Cl)cn1 | 18.8
O=C(C1COc2ccccc2O1)N1CCN(c2nc3c(F)cc(F)cc3s2)CC1 (stereo not drawn) | -16.6
CSc1scc2c1-c1nc(SCC(=O)C(C)(C)C)ncc1CC2 | 11
O=C1CC(c2ccccc2)CC(O)=C1C=Nc1ccc(O)cc1 (stereo not drawn) | -4.73
CC1CCCC(C)N1C(=O)c1ccc(S(=O)(=O)NCc2ccco2)cc1 (stereo not drawn) | 4.25
CCCNC(=S)N1CCN(C)CC1.O=C(O)C(=O)O | 19.2
O=C(NNC(=O)C1CCN(Cc2cccc(F)c2)CC1)c1cccc(Cl)c1 | -8.28
O=C(C1=C[C@@H](c2ccc3c(c2)OCO3)C[C@@H](OCCCCO)O1)N1CCN(Cc2ccc3c(c2)OCO3)CC1 | -65.9
Cc1ccc(C)n1-c1ccc(C(=O)NC2CCN(Cc3ccccc3)CC2)cc1 | -65.5
Cc1cc(NCC(C)C)n2ncnc2n1 | 14
Cc1ccc(-c2nn(CCC(=O)NCC3CCCO3)c(=O)c3ccccc23)cc1 (stereo not drawn) | -12.4
NC(=O)CSc1nnc(-c2ccoc2)o1 | 11.8
Nc1c(Cl)cnc(C(Cl)(Cl)Cl)c1Cl | -8.58
Cc1ccc(S(=O)(=O)N(C)C(C)CCc2ccco2)cc1 (stereo not drawn) | -9.1
O=C1CC(C(=O)N2CCCc3ccccc32)CN1c1ccc(Cl)cc1 (stereo not drawn) | -45.6
O=C(COC(=O)Cc1ccsc1)NCc1ccc(Cl)cc1 | 10.6

Structure (SMILES) | hERG current change (%, negative = inhibition) at 10uM [%]
Cc1ccc(-c2nc3n(n2)Cc2ccccc2-3)cc1 | -6.88
Cc1onc(-c2ccccc2Cl)c1C(=O)NCCCc1ccccc1 | -10.1
O=C(CCC(=O)N1CCOc2ccccc21)NCCCc1ccccc1 | -17.5
CC1CC(C)CN(c2ccc(C(=O)NCc3ccc4c(c3)OCO4)cc2[N+](=O)[O-])C1 (stereo not drawn) | 5.2
COc1ccc(S(=O)(=O)N2CCCC(C(=O)NCCc3ccccc3)C2)cc1 (stereo not drawn) | 12.9
Cc1cc(/C=N/n2cnnc2)c(C)n1-c1ccc(OCc2ccccc2F)cc1 | 5.61
COCCn1c(C)cc(C(=O)CSc2nncn2-c2ccccc2)c1C | -15
CC(=O)N1CCOc2ccc(S(=O)(=O)NCc3ccccc3Cl)cc21 | -11.6
O=C1Nc2ccccc2C1=Nc1ccc(-c2nnc3n2CCCCC3)cc1 | 15.4
CCC(=O)Nc1ccc2c(c1)C(=O)N(C1CCCCC1)C2=O | 14.4
CCOc1ccc(S(=O)(=O)NC(C)C(=O)NCc2ccncc2)cc1 (stereo not drawn) | 9.19
COc1cccc(OCCCn2ccnc2)c1.Cl | 16.5
CSc1ccc(C2=CC(=O)C[C@H](c3ccc(F)cc3)C2)cc1 | 4.96
Cc1cc(Cl)c2oc(C(=O)N(C)CCc3cnn(C)c3)c(C)c2c1 | 3.12
Cc1nn(-c2ccccc2)c(C)c1C1C(C#N)=C(N)Oc2n[nH]c(C)c21 (stereo not drawn) | -2.92
O=C(Nc1nccs1)c1ccc(COc2ccccc2Br)o1 | -6.85
O=C(c1ccc(=O)[nH]c1)N(Cc1cccs1)C1(C(=O)NC2CCCC2)CCCCC1 | -17
O=C(Nc1ccccc1)c1cccc(Cn2cc(C(F)(F)F)ccc2=O)c1 | -10.8
O=C(NN1C(=O)C2C3C=CC(C3)C2C1=O)c1cccc(Cl)c1 (stereo not drawn) | 10.9
COc1ccccc1OCc1nc(Cc2ccc(Cl)cc2)no1 | -31.4
CCC(C)NC(=O)C1CCC(=O)N1Cc1ccc(C)cc1 (stereo not drawn) | 17.6
Cc1cc(NC(=O)CSc2nnnn2-c2ccccc2)no1 | -9.38
